Assay: soluble on expression in E. coli; label from the status in PepcDB or PDB records

Row | Sequence | soluble on expression in E. coli
1 | MIVGLGTDIAEIERVEKALARSGENFARRILTDSELEQFHASKQQGRFLAKRFAAKEAASKALGTGIAQGVTFHDFTISHDKLGKPLLILSGQAAELASQLQVENIHLSISDERHYAMATVILERR | not soluble
2 | MKKNAVHFGAGNIGRGFIGKLLADADIAVTFADVNEPLVDQLSHQQEYKVKVVGSECKMETVSHVTAVNSASEALIERIIKTDLVTTAVGPTVLDIIAKTIAKGLSARFAAGNTQPLNIIACENMVRGTTHLKQQVYQFLTTEEQQQADALVGFVDSAVDRIVPPLQAANDDPLEVTVESFSEWIVDEQQFKGEIPQIEGMEKTDNLMAFVERKLFTLNTGHCVTAYLGCLKGHRTIREAIEDPCIHAQVKQAMQESGEVLIRRYGFDRALHSAYIEKILSRFANPYLVDEVDRVGRQPLRKLSANDRLIKPLLGTIEYGLPNGMLLKGIAAALKYRNSSDPQAVELQQSIEKEGVRSTLARYTGLAAESVEAQQIEALYQQMD | not soluble

Source: the DeepSol protein solubility set
